{"source": "paper PMC4336329", "about": "(PLoS ONE, 2015)", "note": "Among all 310,000 compounds or so, about 2,200 (0.71%) showed an effect of 50% or more. Effects have a minus sign here. The list shows a part of the results.", "data": [{"target": "human ether-à-go-go-related gene (hERG) potassium channel (human, UniProt Q12809)", "sequence (Q12809 whole entry, looked up)": "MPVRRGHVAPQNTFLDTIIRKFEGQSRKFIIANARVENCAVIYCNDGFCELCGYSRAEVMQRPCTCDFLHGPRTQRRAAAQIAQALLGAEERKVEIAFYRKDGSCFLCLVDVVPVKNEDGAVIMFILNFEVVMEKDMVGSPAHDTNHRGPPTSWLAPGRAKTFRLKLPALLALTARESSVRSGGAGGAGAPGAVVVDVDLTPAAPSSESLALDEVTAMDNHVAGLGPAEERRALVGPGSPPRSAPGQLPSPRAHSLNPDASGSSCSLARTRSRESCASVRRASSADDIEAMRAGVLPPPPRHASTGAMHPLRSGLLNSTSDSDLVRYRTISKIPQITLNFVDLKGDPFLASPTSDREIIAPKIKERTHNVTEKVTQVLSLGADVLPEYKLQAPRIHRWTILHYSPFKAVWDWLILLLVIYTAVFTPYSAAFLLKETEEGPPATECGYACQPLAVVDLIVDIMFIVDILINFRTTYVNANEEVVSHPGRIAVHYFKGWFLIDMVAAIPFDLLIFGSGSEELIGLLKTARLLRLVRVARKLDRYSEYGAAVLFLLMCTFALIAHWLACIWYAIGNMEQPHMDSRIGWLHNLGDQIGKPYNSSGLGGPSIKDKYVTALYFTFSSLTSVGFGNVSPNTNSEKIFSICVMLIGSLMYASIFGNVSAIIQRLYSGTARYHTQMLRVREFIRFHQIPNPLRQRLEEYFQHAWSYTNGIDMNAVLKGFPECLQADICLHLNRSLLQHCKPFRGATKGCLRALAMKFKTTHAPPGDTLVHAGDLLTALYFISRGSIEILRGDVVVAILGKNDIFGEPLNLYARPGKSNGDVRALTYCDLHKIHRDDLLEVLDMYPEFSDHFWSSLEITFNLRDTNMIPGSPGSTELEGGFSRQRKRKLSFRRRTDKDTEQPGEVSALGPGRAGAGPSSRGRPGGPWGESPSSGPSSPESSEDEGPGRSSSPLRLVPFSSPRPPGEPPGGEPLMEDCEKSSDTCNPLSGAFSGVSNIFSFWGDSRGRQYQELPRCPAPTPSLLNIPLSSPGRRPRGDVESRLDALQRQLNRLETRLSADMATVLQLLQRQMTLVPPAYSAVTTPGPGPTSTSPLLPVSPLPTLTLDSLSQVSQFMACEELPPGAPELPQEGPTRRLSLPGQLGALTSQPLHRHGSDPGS", "experiment": "primary screen, population patch clamp on CHO cells stably expressing hERG", "units": {"hERG current change (%, negative = inhibition) at 1uM": "%"}, "values": [{"compound": "CC(=O)NNC(=O)c1csc(-c2csc(C)n2)n1", "hERG current change (%, negative = inhibition) at 1uM": 2.87}, {"compound": "COc1ccc(CCNS(=O)(=O)CC23CCC(CC2=O)C3(C)C)cc1OC", "note": "(stereo not drawn)", "hERG current change (%, negative = inhibition) at 1uM": 11.8}, {"compound": "CN(CC(=O)Nc1ccc(F)c(F)c1F)C(=O)C1CC(=O)N(c2ccc3c(c2)OCCO3)C1", "note": "(stereo not drawn)", "hERG current change (%, negative = inhibition) at 1uM": 9.36}, {"compound": "COc1ccc(C(CC(=O)O)NC(=O)c2ccccc2)cc1OC", "note": "(stereo not drawn)", "hERG current change (%, negative = inhibition) at 1uM": 0.384}, {"compound": "C/C(=N\\NC(=O)C1CCCN(S(=O)(=O)c2ccccc2)C1)c1ccncc1", "note": "(stereo not drawn)", "hERG current change (%, negative = inhibition) at 1uM": -11}, {"compound": "COc1cc(/C=N/NC(=O)Cn2c([N+](=O)[O-])cnc2C)ccc1OC(=O)N(C)C", "hERG current change (%, negative = inhibition) at 1uM": 15.5}, {"compound": "CCOc1ccc(NC(=O)CSc2nc3nc(C)cc(C)n3n2)cc1", "hERG current change (%, negative = inhibition) at 1uM": 15.2}, {"compound": "COC(=O)COc1ccc(C(c2c(C)[nH][nH]c2=O)c2c(C)[nH][nH]c2=O)cc1", "hERG current change (%, negative = inhibition) at 1uM": 12.4}, {"compound": "O=S(=O)(CCc1ccccc1)/N=C/c1cccs1", "hERG current change (%, negative = inhibition) at 1uM": 14.7}, {"compound": "C/C(N)=C(/C#N)C(=O)CSc1n[nH]c(-c2cccs2)n1", "hERG current change (%, negative = inhibition) at 1uM": 7.36}, {"compound": "O=C(COC(=O)c1ccc[nH]c1=O)NCC1CCCO1", "note": "(stereo not drawn)", "hERG current change (%, negative = inhibition) at 1uM": 7.53}, {"compound": "Cc1c(Cl)c([N+](=O)[O-])nn1CCCC(=O)Nc1c(Cl)cccc1Cl", "hERG current change (%, negative = inhibition) at 1uM": -1.71}, {"compound": "CCc1ccc2nc(N3CCN(C)CC3)c(C#N)cc2c1", "hERG current change (%, negative = inhibition) at 1uM": -21.4}, {"compound": "CCOC(=O)N1CCN(C(=O)c2ccc3oc(CCCc4ccccc4)nc3c2)CC1", "hERG current change (%, negative = inhibition) at 1uM": -5.3}, {"compound": "O=C(/C=C/c1ccc2c(c1)OCO2)NCCSCc1cccc(Cl)c1", "hERG current change (%, negative = inhibition) at 1uM": -1.68}, {"compound": "Cc1c(CCOC(=O)C23CC4CC(CC(C4)C2)C3)sc[n+]1CC#N.[Cl-]", "hERG current change (%, negative = inhibition) at 1uM": 12.6}, {"compound": "Cc1nc2ccccc2c2c1C(=O)N(C)C2=O", "hERG current change (%, negative = inhibition) at 1uM": -11.5}, {"compound": "Cc1ccc(NC(=S)NNC(=S)Nc2ccc(C)cc2C)cc1", "hERG current change (%, negative = inhibition) at 1uM": 15.7}, {"compound": "O=C1c2ccccc2S(=O)(=O)N1CCOc1ccc(F)cc1", "hERG current change (%, negative = inhibition) at 1uM": 6.67}, {"compound": "Cc1cc(N2C(=O)C(O)=C(C(=O)c3ccc(C)o3)C2c2cccs2)no1", "note": "(stereo not drawn)", "hERG current change (%, negative = inhibition) at 1uM": 11.8}, {"compound": "COC(=O)c1sc2cc([N+](=O)[O-])cc(SCC(C)C)c2c1N", "hERG current change (%, negative = inhibition) at 1uM": 13}, {"compound": "CCOc1ccc2nc(NS(C)(=O)=O)sc2c1", "hERG current change (%, negative = inhibition) at 1uM": 16.9}, {"compound": "Cc1cccc(NC(=O)CN2CCC(C(=O)c3ccc4c(c3)OCCO4)CC2)c1", "hERG current change (%, negative = inhibition) at 1uM": -1.67}, {"compound": "COc1ccccc1C1=NCc2nnc(CSC)n2-c2ccc(Cl)cc21", "hERG current change (%, negative = inhibition) at 1uM": 0.0726}, {"compound": "CCOc1ccc(N2C(=O)CC(N(Cc3ccco3)C(C)=O)C2=O)cc1", "note": "(stereo not drawn)", "hERG current change (%, negative = inhibition) at 1uM": 6.71}, {"compound": "CCCCCCCCCC(=O)N1CCN(c2cc3c(cc2F)c(=O)c(C(=O)O)cn3CC)CC1", "hERG current change (%, negative = inhibition) at 1uM": 11.7}, {"compound": "O=C(c1ccc(Cl)cc1)c1cnc(-c2ccc(Cl)cc2)s1", "hERG current change (%, negative = inhibition) at 1uM": 7.36}, {"compound": "Cc1ccc(NC(=O)COC(=O)C2CC(=O)N(Cc3ccccc3)C2)cc1F", "note": "(stereo not drawn)", "hERG current change (%, negative = inhibition) at 1uM": 5.54}, {"compound": "O=C(OCC(=O)N1CCN(C(=O)c2ccco2)CC1)c1ccccc1", "hERG current change (%, negative = inhibition) at 1uM": 15}, {"compound": "CC1(C)C(=O)Nc2ccccc2N1C(=O)COC(=O)/C=C/c1ccc(OC(F)F)cc1", "hERG current change (%, negative = inhibition) at 1uM": 19.7}, {"compound": "O=C(CCOc1ccccc1)NCc1ccccc1", "hERG current change (%, negative = inhibition) at 1uM": 13}, {"compound": "N#C/C(=N\\Nc1ccc(Cl)cc1)C(N)=S", "hERG current change (%, negative = inhibition) at 1uM": 12.8}, {"compound": "Cc1cccc2cc(CN(Cc3cccnc3)C(=O)c3ccncc3)c(=O)[nH]c12", "hERG current change (%, negative = inhibition) at 1uM": -4.45}, {"compound": "CCN(CC)C(=O)COc1cc(C)c(Cl)c(C)c1", "hERG current change (%, negative = inhibition) at 1uM": 6.26}, {"compound": "CCC(NC(=O)c1ccccc1O)c1ccccc1", "note": "(stereo not drawn)", "hERG current change (%, negative = inhibition) at 1uM": -2.27}, {"compound": "CCCCCCc1nc2c(=O)[nH]c3ccccc3c2o1", "hERG current change (%, negative = inhibition) at 1uM": 15.2}, {"compound": "OCC1(CCOc2ccccc2)CCN(Cc2ccc3c(c2)OCCO3)CC1", "hERG current change (%, negative = inhibition) at 1uM": -31.2}, {"compound": "O=C(Nc1cccc2ncccc12)c1ccccc1F", "hERG current change (%, negative = inhibition) at 1uM": 13.6}, {"compound": "C[C@@H]1[C@H](O)C[C@@]23COC(=O)C2=CCCC3[C@@]1(C)CCC1COC(=O)C1", "note": "(stereo partly drawn)", "hERG current change (%, negative = inhibition) at 1uM": 4.32}, {"compound": "Cc1cc2nc(SCCN3CCOCC3)[nH]c2cc1C", "hERG current change (%, negative = inhibition) at 1uM": 15.8}, {"compound": "COC(=O)c1ccc(-c2cc(CC3(C(=O)OC)CCN(C(=O)OC(C)(C)C)CC3)on2)cc1", "hERG current change (%, negative = inhibition) at 1uM": 4.51}, {"compound": "O=C(O)[C@H]1CCCC[C@H]1C(=O)Nc1ccc(S(=O)(=O)N2CCOCC2)cc1", "hERG current change (%, negative = inhibition) at 1uM": 5.33}, {"compound": "N#CC1(NC(=O)COC(=O)CSc2ccc(F)cc2)CCCCC1", "hERG current change (%, negative = inhibition) at 1uM": 13}, {"compound": "O=C(CC1SC(=O)NC1=O)Nc1ccc(Cl)cc1", "note": "(stereo not drawn)", "hERG current change (%, negative = inhibition) at 1uM": 16.1}, {"compound": "O=C(CSc1nnc(C2CCCCC2)o1)Nc1ccccc1Cl", "hERG current change (%, negative = inhibition) at 1uM": 9.55}]}]}
